Test results published in PubChem BioAssay AID652106 (National Center for Advancing Translational Sciences (NCATS), 2013).
In all, about 370,000 compounds went through this assay and about 500 (0.14%) were called active. This list was built around the results that the source calls inconclusive (neither active nor inactive); the mix of calls is not that of the screen. Calls come from the whole dose curve; as a rule, active = well fitted activation curve with a large enough effect; inconclusive = small, poorly fitted or top-dose-only effect; inactive = no such curve, though single readings can be large or run the other way. Potencies of inconclusive entries are left out as doubtful fits.

Test: qHTS of alpha-syn Inhibitors; note: nearly all actives have a fitted effect of over 65% in size; for growth rescue (activation): % of control where 0% means no effect
Conditions: Yeast expressing alpha-synuclein, BacTiter-Glo, 24 h; Potency: growth rescue unless noted; growth rescue (activation): at 46.1 µM (top of the series) unless noted
Outline: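 Readout is rescue of growth in alpha-synuclein-expressing yeast, so inhibitors of toxicity appear as activators. Growth after 24 hr at 30 deg C in galactose medium is quantified by luminescence.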
Potency is the fitted concentration of half-maximal effect; tags give direction and shape of the fitted curve.

| SMILES | Potency | growth rescue (activation) |
| --- | --- | --- |
| C=CCn1c(O)c(N=NC(=S)Nc2cccc(C)c2)c2ccccc21 | inconclusive [activator, partial curve, poor fit] | – |
| Cn1ncc(S(=O)(=O)Cc2ccccc2)c(Br)c1=O | – | inconclusive: -89.5% [activator] |
| C=CCn1c(-c2cccs2)nc2ccccc21 | inactive | – |
| N#Cc1nc(COc2ccccc2Cl)oc1N1CCCC1 | inconclusive [activator, single point] | – |
| CCCCC(=O)NC(c1cccs1)c1cc(Cl)c2cccnc2c1O (centres undefined) | active: 22.4 µM | – |
| CC(C(=O)Nc1ccc(Cl)cc1Cl)N1C(=O)NC2(CCCC2)C1=O (centres undefined) | inconclusive [activator, single point] | – |
| CCc1ccc(CNC(=O)CCc2nnc(CCc3ccc(OC)cc3)o2)nc1 | inconclusive [activator, single point] | – |
| O=C(CNC(=O)c1ccco1)NCC(=O)OCc1cccc(Cl)c1 | inconclusive [activator, single point] | – |
| CS(=O)(=O)Nc1ccc(C(=O)Nc2ccccc2C(=O)N2CCCC2)cc1 | inconclusive [activator, single point] | – |
| CC(Sc1ccc2ccccc2n1)C(=O)O (centres undefined) | inactive | – |
| C=CCOc1ccc(C(=O)c2ccccc2)c(OCC(=O)NC2(C#N)CCCC2)c1 | inconclusive [activator, single point] | – |
| CCCCCC(=O)O[C@]1(C(C)=O)CC[C@H]2[C@@H]3CCC4=CC(=O)CC[C@]4(C)[C@H]3CC[C@@]21C | inconclusive [activator, single point] | – |
| Cn1nnnc1SCC(=O)N1CCN(c2ccc(Cl)cc2)CC1 | inconclusive [activator, single point] | – |
| COc1cccc(S(=O)(=O)c2nc(C)c3c(n2)CCC3)c1 | inconclusive [activator, single point] | – |
| COc1cccc(C(C(=O)NC2CCCCC2)N(C(=O)c2ccco2)c2ccccc2OC)c1 (centres undefined) | inactive | – |
| Cc1sc2ncnc(N3CCC(C(=O)Nc4cc(S(C)(=O)=O)ccc4Cl)CC3)c2c1C | inactive | – |
| CC(=O)Nc1ccc(NC(=O)C2(C)Cc3c(-c4ccc(NC(C)=O)cc4)ccnc3O2)cc1 (centres undefined) | inactive | – |
| COc1cc(NC(=S)NCC2CCCO2)c(OC)cc1Cl (centres undefined) | inconclusive [activator, single point] | – |
| CC12CCC(C/C1=N\N=C1\NC(=O)/C(=C\c3ccc(Cl)cc3)S1)C2(C)C (centres undefined) | inconclusive [activator, single point] | – |
| COc1cc(CNCCc2ccc(S(N)(=O)=O)cc2)ccc1OCc1ccc(Cl)cc1 | inconclusive [activator, single point] | – |
| COc1cc(NC(=O)CCn2cnc3ccccc3c2=O)cc(OC)c1 | inactive | – |
| CCc1ccccc1NC(=O)NC1CCCCC1 | inactive | – |
| COc1ccccc1CNC(=O)C1CC2Cn3c(nc4cc(C)c(C)cc43)C2N1C (centres undefined) | inconclusive [activator, partial curve, poor fit] | – |

| SMILES | Potency | growth rescue (activation) |
| --- | --- | --- |
| Cc1ccc(CCNS(=O)(=O)c2ccc3c(c2)C(C)(C)C(=O)N3C)cc1 | inconclusive [activator, single point] | – |
| O=[N+]([O-])c1ccc(S(=O)(=O)N2CCN(Cc3ccco3)CC2)cc1 | inactive | – |
| CC(=O)c1cccc(NC(=O)C2Cc3c(-c4ccc(Cl)cc4)ccnc3O2)c1 (centres undefined) | inconclusive [activator, single point] | – |
| O=C(CCc1ccccc1)NC1(Cc2ccccc2)CCN(CCCc2ccccc2)C1=O (centres undefined) | inconclusive [activator, single point] | – |
| CC(=O)N1N=C(c2ccc(Br)cc2)CC1c1cn(C)c2ccccc12 (centres undefined) | inconclusive [activator, single point] | – |
| Cc1ccc2ccccc2c1C(O)c1ncc(-c2ccc(C(F)(F)F)cc2)[nH]1 (centres undefined) | inconclusive [activator, single point] | – |
| CCOC(=O)N1CCC(NC(=O)c2ccc3c(c2)N(Cc2ccc(C)cc2)CCS3)CC1 | inconclusive [activator, single point] | – |
| CCCCCC1CC(CC(=O)Nc2ccc([N+](=O)[O-])cc2)C(=O)O1 (centres undefined) | inactive | – |
| Cc1ccc(N(C)S(=O)(=O)c2ccc(-c3cc(C)no3)s2)cc1 | inconclusive [activator, partial curve] | – |
| COc1ccc(/C=C(/C(=O)c2cccs2)N2C=CC=CC2=C(C#N)C#N)cc1 | active: 17.8 µM | – |
| NS(=O)(=O)c1ccc(CCNCC(=O)NCc2ccccc2Cl)cc1 | inconclusive [activator, partial curve] | – |
| CN1CCN(C2CN(C3CCCCC3)S(=O)(=O)C2)CC1 (centres undefined) | inconclusive [activator, single point] | – |
| Cc1c(C(=O)NCc2cccnc2)oc2ccc(S(=O)(=O)N3CCC4(CC3)OCCO4)cc12 | inconclusive [activator, single point] | – |
| COCCNc1nc(Oc2cccc(NC(C)=O)c2)c2sccc2n1 | inconclusive [activator, single point] | – |
| CCCS(=O)(=O)N1CCN(CC2CC=CCC2)CC1 (centres undefined) | inactive | – |
| O=C1c2ccccc2C(c2nnnn2Cc2ccccc2)N1CCc1c[nH]c2ccccc12 (centres undefined) | inconclusive [activator, single point] | – |
| Cc1cc(C)c(S(=O)(=O)c2ccccc2)c(OC(=O)c2c(Cl)cc(Cl)cc2Cl)n1 | inconclusive [activator, partial curve] | – |
| CC1(Cc2ccccc2Cl)C(=O)Nc2ccc(OC(F)(F)F)cc21 (centres undefined) | inconclusive [activator, partial curve] | – |
| COc1ccc(Cl)cc1S(=O)(=O)N1CCN(C(=O)c2ccco2)CC1 | inactive | – |
| CCOC(=O)c1c(NC(=O)c2cccnc2)sc(C)c1C | inconclusive [activator, single point] | – |
| OCCNc1ncnc2oc(-c3ccco3)c(-c3ccco3)c12 | inconclusive [activator, single point] | – |
| COc1ccccc1N1CCN(c2ncnc3sc(C(=O)NCC4CCCO4)c(C)c23)CC1 (centres undefined) | inconclusive [activator, single point] | – |
| COc1ccc(-c2cc3nc4n(c(=O)c3s2)CCCCC4)cc1 | inconclusive [activator, single point] | – |

| SMILES | Potency | growth rescue (activation) |
| --- | --- | --- |
| CSc1ccc(CN2CCC2(C)C(=O)Nc2ccc(C)c(O)c2)cc1 (centres undefined) | inconclusive [activator, single point] | – |
| COc1cc(C(O)c2nc(-c3ccc(F)cc3OC)cs2)ccc1F (centres undefined) | inconclusive [activator, single point] | – |
| CCCn1nc(C(=O)N2CC(=O)Nc3ccccc32)c2ccccc2c1=O | inconclusive [activator, single point] | – |
| C=CCSc1nnc(NC(=O)CSc2nc3ccccc3[nH]2)s1 | inconclusive [activator, single point] | – |
| COc1ccc(/C=C(/NC(=O)c2ccccc2)C(=O)N/N=C/c2ccncc2)cc1 | inconclusive [activator, single point] | – |
| Cn1nc(C(=O)Nc2nc3ccc(S(C)(=O)=O)cc3s2)ccc1=O | inconclusive [activator, single point] | – |
| O=[N+]([O-])c1cccnc1N1CCC(c2cc(-c3ccc(Cl)cc3Cl)n[nH]2)CC1 | inconclusive [activator, single point] | – |
| Cc1ccc2c(c1)N(CC(=O)NC1CCCC1)C(=O)C(C)O2 (centres undefined) | inconclusive [activator, single point] | – |
| Cc1cccnc1NC(=O)C12CCC(C)(C(=O)O1)C2(C)C (centres undefined) | inconclusive [activator, single point] | – |
| O=C(CCNNC(=O)c1ccncc1)NCc1ccccc1 | inconclusive [activator, single point] | – |
| COCCCNC(=O)c1cn(CC(C)C)c(=O)c2c1c1ccccc1n2C | inactive | – |
| Cn1ccc2c(-c3ccc(F)nc3)cc3c(c21)C1CCC3O1 (centres undefined) | inactive | – |
| CC(=NNC(=S)Nc1ccccc1)c1ccccn1 | inconclusive [activator, partial curve] | – |
| CCC1=Nc2cc(C(=O)O)ccc2Sc2ccccc21 | inactive | – |
| O=C(Nc1cnn(Cc2ccc(Cl)cc2Cl)c1)c1cc(-c2cccs2)on1 | inconclusive [activator, single point] | – |
| Cc1ccc(S(=O)(=O)NN=Cc2ccc(N3CCOCC3)cc2)cc1[N+](=O)[O-] | inconclusive [activator, single point] | – |
| CCN(CC)CCN1C(=O)c2ccccc2NC1c1ccc(OC)c(COc2ccc(NC(C)=O)cc2)c1 (centres undefined) | inconclusive [activator, single point] | – |
| COc1ccccc1CNS(=O)(=O)c1ccc2[nH]c3c(c2c1)CCCCC3 | inconclusive [activator, single point] | – |
| CC(=O)N1c2ccc(S(=O)(=O)N(C)Cc3ccco3)cc2CC1C (centres undefined) | inconclusive [activator, single point] | – |
| O=C(Nc1ccccc1Oc1ccccc1)c1ccccc1F | inactive | – |
| O=C(Nc1ccc(Cl)cc1)Nc1cccnc1 | inactive | – |
| Cc1cc(OCc2nc(-c3cccnc3)no2)c(C)cc1Br | inactive | – |
| CC(=O)c1cccc(NC(=S)N2CCc3ccccc32)c1 | inactive | – |
